According to the antibiotic and cytotoxicity screens of Wong et al. (2023):
This is one part of the list.

Assays:
[1] = tested on: HSkMC (human skeletal muscle cells); assay: cytotoxicity call (relative viability < 0.9); settings: 10 µM
[2] = tested on: HepG2; assay: cytotoxicity call (relative viability < 0.9); settings: 10 µM
[3] = tested on: S. aureus RN4220; assay: growth inhibition call (relative growth <= 0.2); settings: 50 µM

| SMILES | cytotoxicity call [1] | cytotoxicity call [2] | growth inhibition call [3] |
| --- | --- | --- | --- |
| Oc1ccc(N2CCNCC2)cc1 | inactive | inactive | inactive |
| Cc1ccc2[nH]cc(C[C@@H](C)N)c2c1 | inactive | inactive | inactive |
| NC1N[C@H]2CCCC[C@@H]2N1 | inactive | inactive | inactive |
| S=C=Nc1cccc(C2(N3CCCCC3)CCCCC2)c1 | inactive | active | inactive |
| CC(=O)N1CC[N+](C)(C)CC1 | inactive | inactive | inactive |
| CN(CCC[C@@H](O)c1cccnc1)[NH2+][O-] | inactive | inactive | inactive |
| CC(C)(C#N)O[C@@H]1O[C@H](CO)[C@@H](O)[C@H](O)[C@H]1O | inactive | inactive | inactive |
| CNC(C)C(O)c1ccccc1.Cl (stereo unspecified) | inactive | inactive | inactive |
| CCCCCCCCCCCCCCCC[n+]1ccccc1.[Cl-] | active | active | inactive |
| CC(C)Oc1ccc(CCN)cc1 | inactive | inactive | inactive |
| Cc1scc(CCN)c1C | inactive | inactive | inactive |
| COc1ccccc1C1(N)CC1 | inactive | inactive | inactive |
| CCS(=O)(=O)N1C[C@@H]2CCN[C@@H]2C1 | inactive | inactive | inactive |
| C[C@H](O)[C@@]12[C@H]3CC=C[C@@H]1N2CC3 (stereo partly specified) | inactive | inactive | inactive |
| Br.COC(=O)C1=CCCN(C)C1 | inactive | active | inactive |
| COc1cc2c3cc1Oc1c(OC)c(OC)cc4c1[C@@H](Cc1cccc(c1)Oc1ccc(c(O)c1)C[C@@H]3N(C)CC2)N(C)CC4 | inactive | inactive | inactive |
| Nc1ncnc2c1ncn2CCOCP(=O)(O)O | inactive | inactive | inactive |
